This passage reports viability, T/C and IC50 results from PubChem BioAssay AID1963864 (Molecular Pharmacology Branch, DTP, NCI, 2024).

The structures appear in SMILES notation. A number of entries come with more than one value. The list is limited to them. There may be further records. Results that share an entry are repeats (runs, samples, wells, individuals or studies). Marks such as [2022-09] give the month of the run. Brackets with × count equal records among those shown.

This experiment concerns KRAS PDC multicell spheroid viability. In words: Anticancer human tumor 521955-158-R6-J3-PDC patient-derived pancreatic carcinoma cell line growth inhibition [KRAS2]. The following applies: for viability, T/C: stronger effect = lower value; for IC50: compound alone. From the text:
Multicellular complex tumor spheroid response to RAS pathway inhibitors in combination with a targeted agents in patient-derived cell lines with oncogenic KRAS variants from multiple cancer types
A high-throughput screen of multi-cell type tumor spheroids was designed to identify active combinations of targeted small molecules and KRAS pathway inhibitors. Complex spheroids include a stromal component modeled by human endothelial cells (HUVEC) and fibroblasts modeled by human mesenchymal stem cells (MSCs). The concentration ranges selected for each drug and investigational agent were based upon clinically achievable concentrations if the clinical Cmax of the agent was known.
Compounds. The drugs and investigational agents: BI-3406 (NSC825286), BAY-293 (NSC824723), batoprotafib (TNO155; NSC825523), sotorasib (AMG 510; NSC818433), MRTX1257 (NSC819558), elimusertib (BAY 1895344; NSC800525), molibresib (GSK525762; NSC774829), temuterkib (LY3214996; NSC803410), venetoclax (NSC766270), alisertib (NSC759677), olaparib (NSC753686), talazoparib (NSC767125), erdafitinib (NSC781556), ipatasertib (NSC767898), cabozantinib (NSC761068), nintedanib (NSC756659), abemaciclib (NSC768073), docetaxel (NSC628503), trametinib (NSC758246), and sapanisertib (NSC764658) were obtained from the National Cancer Institute (NCI) Developmental Therapeutics Program Chemical Repository. The FDA-approved anticancer drug set is available from the Developmental Therapeutics Program. […] The stock solutions were prepared in dimethyl sulfoxide (DMSO, Sigma-Aldrich, St. Louis, MO, cat. D2650) at 800-fold the tested concentration and stored at -70 degrees C prior to their use. All drugs and investigational agents were tested over a range starting from a high concentration at or near the clinical Cmax and decreasing in half-log increments. If the clinical Cmax for an agent had not been determined, the highest concentration tested was 10 microM.
Cell Culture. All cells were maintained in an incubator at 37 degrees C and 5% CO2 with 95% humidity. The PDC lines were cultured according to standard operating procedures established by the NCI PDMR (https://pdmr.cancer.gov/sops/default.htm). Briefly, all PDCs were thawed and cultured in Matrigel-coated flasks prepared with a working solution of 1X Ham's F-12 nutrient mix, without supplementation (Invitrogen, Waltham, MA, cat. 11765054), 100 U/mL penicillin-streptomycin (Invitrogen, cat. 15140122), and 2.5% Matrigel (Corning Inc., Corning, NY, cat. 354248) for the first three passages. All PDCs were cultured in complete DMEM/F-12 media containing advanced DMEM/F-12 (Invitrogen, cat. 12634028), 4.9% defined fetal bovine serum, heat inactivated (HyClone Laboratories Inc., Logan, UT, cat. SH30070.03HI), 389 ng/mL hydrocortisone (Sigma-Aldrich, cat. H4001), 9.7 ng/mL human EGF recombinant protein (Invitrogen, cat. PHG0313), 23.4 microg/mL adenine (Sigma-Aldrich, cat. A2786), 97.3 U/mL penicillin-streptomycin (Invitrogen, cat. 15140122), 1.9 mM L-glutamine (Invitrogen, cat. 25030081), and 9.7 microM Y-27632 dihydrochloride (Tocris Bioscience, Bristol, United Kingdom, cat. 1254). The PDCs were cultured in complete DMEM/F12 media without 9.7 microM Y-27632 dihydrochloride for at least two passages prior to the screen. The established cell line HOP-62 was cultured in RPMI 1640 medium, HEPES (Invitrogen, cat. 22400105) with 10% defined fetal bovine serum (HyClone Laboratories Inc., cat. SH30070.03) and 2 mM L-glutamine (Invitrogen, cat. 25030081). The pooled donor HUVEC were cultured in endothelial cell growth medium 2 (PromoCell, Heidelberg, Germany, cat. C-22011) and the hMSC were cultured in mesenchymal stem cell growth medium 2 (PromoCell, cat. C-28009). For all experiments, HUVEC and hMSC were used at passages </=5, while the malignant cell lines were used at passages </=15. […]
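Further: drug exposure lasted seven days.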
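Wherever viability, T/C is given: 100% = DMSO vehicle wells and lower means fewer viable cells.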

In the case of `COc1cc(Nc2ncc3c(n2)-c2ccc(Cl)cc2C(c2c(F)cccc2OC)=NC3)ccc1C(=O)O`, the viability, T/C is, setting by setting: (compound alone 3.16 µM) 84.6, 92.3, 112, 97.5, 104%; (compound alone 10 µM) 75.2, 96.7, 110, 95.2, 96.4%.

As to `CC1OCC2(CCN(c3cnc(Sc4ccnc(N)c4Cl)c(N)n3)CC2)C1N` (stereo unspecified), the viability, T/C is 79.9, 80.3, 80.2, 77.5, 87.2, 99.3, 91.1, 86.7, 92, 82.2, 85.6% [2021-08] and 107, 95.9, 93.7, 88.4, 89.5, 89.2, 81.8, 77.7% [2021-09] (compound alone 0.1 µM); 77, 101, 73.8, 76.6, 98.3, 93.7, 91.8, 90.7, 94.9, 89.6, 84.6% [2021-08] and 99.9, 108, 105, 88.8, 95.4, 88.1, 88.5, 79.1% [2021-09] (compound alone 1 µM); 99.5, 99.8, 89.8, 82.9, 97.5, 109, 106, 105 (2×), 99.6, 93.8% [2021-08] and 101, 116, 114, 96.5, 104, 108, 103, 88.7% [2021-09] (compound alone 3.16 µM); 88.3, 101, 80.7, 92.4, 95, 109, 102, 110, 113, 107, 99% [2021-08] and 110 (2×), 125, 106, 107, 114, 99, 91.5% [2021-09] (compound alone 10 µM).

Consider `Cn1ncnc1[C@H]1c2n[nH]c(=O)c3cc(F)cc(c23)N[C@@H]1c1ccc(F)cc1`, for which the viability, T/C is reported as 107, 103, 94.2, 78.5, 79.6% (compound alone 0.00316 µM) and 105, 107, 90.4, 98.5, 79.5% (compound alone 0.0316 µM).

Consider `CNCc1ccccc1-c1csc(C(C)Nc2nc(C)nc3cc(OC)c(OC)cc23)c1` (stereo unspecified), for which the viability, T/C (compound alone 1 µM) was 68.5, 87.2, 57.8, 74.7, 63.5, 83.7, 75.4, 82, 88.6, 69.3, 72.8% [2021-08] and 69.8, 63.8, 70.8, 75.3, 73.4% [2021-09]; the viability, T/C (compound alone 3.16 µM) is 87, 2.04, 1.59, 1.16, 0.67, 2.89, 0.48, 1.24, 1.07, 0.72, 2.03% [2021-08] and 0.26, 0.29, 0.37, 0.35, 0.25% [2021-09]. Moreover, the IC50 (run of 08/19/2021) was 4.69, 1.57, 1.17, 1.47, 1.28, 1.62 µM.

Consider `CCNC(=O)CC1N=C(c2ccc(Cl)cc2)c2cc(OC)ccc2-n2c(C)nnc21` (stereo unspecified), for which the viability, T/C (compound alone 1 µM) is listed as 77.7, 86.7, 82.9, 107, 80.8%.

`C=CC(=O)N1CCN(c2nc(=O)n(-c3c(C)ccnc3C(C)C)c3nc(-c4c(O)cccc4F)c(F)cc23)C(C)C1` (stereo unspecified): the viability, T/C is 87.4, 116, 103, 97.1, 98.7, 85.6, 102, 95.9, 105, 114, 97.5% [2021-08] and 86.6, 90.5, 92.5, 98.8, 98.9% [2021-09] (compound alone 1 µM); 111, 112, 104, 90.9, 95.5, 70.7, 89.5, 94.7, 110, 101, 91.3% [2021-08] and 83.8, 95.8, 92, 95.3, 91.2% [2021-09] (compound alone 3.16 µM); 120, 73.5, 92.2, 93.1, 80.5, 78.6, 69.7, 95.2, 98, 76.6, 75.9% [2021-08] and 76.9, 72.8, 67.3, 81.5, 83.7% [2021-09] (compound alone 10 µM).

`COc1cc2nccc(Oc3ccc(NC(=O)C4(C(=O)Nc5ccc(F)cc5)CC4)cc3)c2cc1OC`: the viability, T/C by setting is: (compound alone 0.0316 µM) 92.3, 113, 111, 86.6, 100%; (compound alone 0.1 µM) 89.5, 111, 115, 95.7, 94%; (compound alone 1 µM) 101, 120, 105, 91.1, 89.5%; (compound alone 3.16 µM) 111, 131, 122, 113, 100%; (compound alone 10 µM) 112, 130, 121, 94.3, 93.2%.

As for `CC(=O)Nc1cccc(-n2c(=O)n(C3CC3)c(=O)c3c(Nc4ccc(I)cc4F)n(C)c(=O)c(C)c32)c1`, the IC50 is 24.1 nM, > 31.6 nM, 22.9 nM, 20.9 nM, 30.8 nM. Under “compound alone 0.001 µM”, the viability, T/C was 99.2, 109, 116, 94.2, 89.9%.

For `C=CC(=O)N1CCN(c2nc(OCC3CCCN3C)nc3c2CCN(c2cccc4cccc(C)c24)C3)CC1CC#N` (stereo unspecified), the viability, T/C (compound alone 0.316 µM) is 80.8, 103, 99.2, 87.3, 81, 86.6, 100, 88.3, 96.8, 105, 76.9% [2021-08] and 95.2, 90.8, 91.9, 103, 91.3% [2021-09]; the viability, T/C (compound alone 1 µM) was 83.9, 95.4, 91.5, 73.6, 77.4, 74.2, 76.4, 81.3, 85.9, 89.5, 67.4% [2021-08] and 86.6, 79.8, 74.4, 87.7, 77.9% [2021-09]; the viability, T/C (compound alone 3.16 µM) was 78.6, 25.2, 41.1, 33.3, 12.1, 26.1, 38.8, 61.8, 48.5, 46.9, 38.1% [2021-08] and 15.2, 39.7, 34, 46.2, 26.5% [2021-09]. Also, the IC50 is recorded as > 3.16 µM, 2.11 µM, 2.59 µM, 1.96 µM, 1.56 µM, 1.78 µM (run of 08/19/2021) and 2.24 µM, > 3.16 µM, 3.03 µM, 2.94 µM, 1.95 µM (run of 08/26/2021).

Regarding `COc1cc2nc(C)nc(NC(C)c3cc(N)cc(C(F)(F)F)c3)c2cc1OC1CCOC1` (stereo unspecified), the viability, T/C is, setting by setting: (compound alone 1 µM) 72.3 (2×), 119, 73, 78.2, 83.3, 93.5, 87.5, 92.6, 83.1, 83.9% [2021-08] and 88.4, 77.6, 92.5, 92.7, 84.6, 78.1% [2021-09]; (compound alone 3.16 µM) 66.1, 77.6, 54.2, 70.4, 67.9, 80.1, 73, 76.3, 69.3, 68.7, 67.5% [2021-08] and 79.2, 75.8, 79.8, 83.3, 71, 68.7% [2021-09]; (compound alone 10 µM) 66.8, 60.1, 57.9, 30.9, 27.6, 11.9, 24.6, 40.8, 42.6, 19.9, 39.7% [2021-08] and 21.5, 52.1, 19.2, 63.7, 30.5, 52.7% [2021-09]. The half-maximal inhibitory concentration (IC50) is, setting by setting: (run of 08/19/2021) > 10 µM, 5.48 µM, 5.05 µM, 5.26 µM; (run of 09/02/2021) 5.67 µM, > 10 µM, 5.54 µM, 5.74 µM.

`COC(=O)c1ccc2c(C(=Nc3ccc(N(C)C(=O)CN4CCN(C)CC4)cc3)c3ccccc3)c(O)[nH]c2c1`: the viability, T/C by setting is: (compound alone 0.316 µM) 111, 118, 130, 106, 101%; (compound alone 1 µM) 110, 134, 132, 130, 101%; (compound alone 3.16 µM) 71.7, 73, 47.8, 55.4, 43.2%.

In the case of `O=C(c1cc(Cc2n[nH]c(=O)c3ccccc23)ccc1F)N1CCN(C(=O)C2CC2)CC1`, the viability, T/C reads like this: (compound alone 0.1 µM) 104, 94.8, 72.7, 95.4, 87.4%; (compound alone 1 µM) 108, 90.2, 80.5, 75, 77.7%; (compound alone 10 µM) 107, 113, 85.2, 89.5, 81.8%.

For the compound `CC1(C)CCC(CN2CCN(c3ccc(C(=O)NS(=O)(=O)c4ccc(NCC5CCOCC5)c([N+](=O)[O-])c4)c(Oc4cnc5[nH]ccc5c4)c3)CC2)=C(c2ccc(Cl)cc2)C1`, the IC50 is listed as 8.17 µM, 4.19 µM, 6.85 µM, > 10 µM. Where the note is “compound alone 3.16 µM”, the viability, T/C is 89.2, 60.2, 80.8, 87.5, 74.8%. Where the note is “compound alone 10 µM”, the viability, T/C is 41.6, 17.6, 34.9, 54.1, 52.2%.
